Our source for the growth inhibition call values is the antibiotic and cytotoxicity screens of Wong et al. (2023).

The list shows a part of the results.

In this assay the test system is S. aureus RN4220. The assay can be described thus: growth inhibition call (relative growth <= 0.2). The following applies: 50 µM.
In the case of `C[C@@H]1CN([C@H](C)CO)C(=O)Cc2cc(NS(C)(=O)=O)ccc2O[C@@H]1CN(C)S(=O)(=O)c1cn(C)cn1`, the growth inhibition call was “inactive”. Regarding `C[C@H](CO)N1C[C@H](C)[C@@H](CN(C)C(=O)Nc2ccc(C(F)(F)F)cc2)Oc2ccc(NS(=O)(=O)c3ccc(Cl)cc3)cc2CC1=O`, the growth inhibition call is “inactive”. The entry for `COc1ccc(CN(C)C[C@H]2Oc3ccc(NC(=O)Nc4ccc(C(F)(F)F)cc4)cc3C(=O)N([C@H](C)CO)C[C@H]2C)cc1` is “inactive”; for `Cc1noc(C)c1NC(=O)N(C)C[C@H]1Oc2ccc(NC(=O)C3CC3)cc2C(=O)N([C@@H](C)CO)C[C@@H]1C` it is “inactive”.

For `O=c1[nH]nc(N2CCOCC2)c(=O)[nH]1`, the growth inhibition call was “inactive”. Next, `CCC1(C(=O)O)CCNCC1`: “inactive”; `CCCNC(=O)Nc1ccc2c(c1)OC[C@H](C)N(Cc1ccc(-c3ccccn3)cc1)C[C@@H](C)[C@@H](OC)CN(C)C2=O`: “inactive”. The entry for `COc1ccc(NC(=O)N(C)C[C@H]2Oc3c(NC(=O)Nc4cccc5ccccc45)cccc3C(=O)N([C@@H](C)CO)C[C@@H]2C)cc1` is “inactive”; for `C[C@H]1CN([C@@H](C)CO)S(=O)(=O)c2ccc(Br)cc2O[C@H]1CN(C)C(=O)c1cnccn1` it is “inactive”.
